Residue numbers refer to the chain shown, from its start. Some of the results follow.
B1: UUCAUGA (DNA:RNA)
RNA: GGGAGACCGGAAUUCAGAUUGUCCUUCAUGAUUAAAUCCCGUCGUAGCCACCA
DNA 1: CAATCTGAATTCCGGTCTCCC
DNA 2: TGGTGGCTACGACGGGATT
B2: CCUUUUC (DNA:RNA)
RNA: B1 RNA with U25C, U26C, C27U, A28U, G30U, A31C
DNA 1: CAATCTGAATTCCGGTCTCCC
DNA 2: TGGTGGCTACGACGGGATT
B3: AAUCGGG (DNA:RNA)
RNA: B1 RNA with U25A, U26A, C27U, A28C, U29G, A31G
DNA 1: CAATCTGAATTCCGGTCTCCC
DNA 2: TGGTGGCTACGACGGGATT
B4: GUCUAUU (DNA:RNA)
RNA: B1 RNA with U25G, A28U, U29A, G30U, A31U
DNA 1: CAATCTGAATTCCGGTCTCCC
DNA 2: TGGTGGCTACGACGGGATT
B5: CUAUAAA (DNA:RNA)
RNA: B1 RNA with U25C, C27A, A28U, U29A, G30A
DNA 1: CAATCTGAATTCCGGTCTCCC
DNA 2: TGGTGGCTACGACGGGATT
B6: AGCCGCG (DNA:RNA)
RNA: B1 RNA with U25A, U26G, A28C, U29G, G30C, A31G
DNA 1: CAATCTGAATTCCGGTCTCCC
DNA 2: TGGTGGCTACGACGGGATT
B7: CGGUCUG (DNA:RNA)
RNA: GGGAGACCGGAAUUCAGAUUGUCCCGGUCUGUUAAAUCCCGUCGUAGCCACCA
DNA 1: CAATCTGAATTCCGGTCTCCC
DNA 2: TGGTGGCTACGACGGGATT
B8: AGUGUUU (DNA:RNA)
RNA: B7 RNA with C25A, G27U, U28G, C29U, G31U
DNA 1: CAATCTGAATTCCGGTCTCCC
DNA 2: TGGTGGCTACGACGGGATT
B9: GUAUAGG (DNA:RNA)
RNA: B7 RNA with C25G, G26U, G27A, C29A, U30G
DNA 1: CAATCTGAATTCCGGTCTCCC
DNA 2: TGGTGGCTACGACGGGATT
B10: GGAGUUG (DNA:RNA)
RNA: B7 RNA with C25G, G27A, U28G, C29U
DNA 1: CAATCTGAATTCCGGTCTCCC
DNA 2: TGGTGGCTACGACGGGATT
B11: GGAAUGC (DNA:RNA)
RNA: B1 RNA with U25G, U26G, C27A, A31C
DNA 1: CAATCTGAATTCCGGTCTCCC
DNA 2: TGGTGGCTACGACGGGATT
B12: UUGACCC (DNA:RNA)
RNA: B1 RNA with C27G, U29C, G30C, A31C
DNA 1: CAATCTGAATTCCGGTCTCCC
DNA 2: TGGTGGCTACGACGGGATT
B13: CGGGCAC (DNA:RNA)
RNA: B7 RNA with U28G, U30A, G31C
DNA 1: CAATCTGAATTCCGGTCTCCC
DNA 2: TGGTGGCTACGACGGGATT
B14: GCUCUGC (DNA:RNA)
RNA: B1 RNA with U25G, U26C, C27U, A28C, A31C
DNA 1: CAATCTGAATTCCGGTCTCCC
DNA 2: TGGTGGCTACGACGGGATT
B15: CUGAGUA (DNA:RNA)
RNA: B7 RNA with G26U, U28A, C29G, G31A
DNA 1: CAATCTGAATTCCGGTCTCCC
DNA 2: TGGTGGCTACGACGGGATT
B16: UGGUACG (DNA:RNA)
RNA: B7 RNA with C25U, C29A, U30C
DNA 1: CAATCTGAATTCCGGTCTCCC
DNA 2: TGGTGGCTACGACGGGATT
B17: GCGUAGU (DNA:RNA)
RNA: B7 RNA with C25G, G26C, C29A, U30G, G31U
DNA 1: CAATCTGAATTCCGGTCTCCC
DNA 2: TGGTGGCTACGACGGGATT
B18: CUACGCC (DNA:RNA)
RNA: B7 RNA with G26U, G27A, U28C, C29G, U30C, G31C
DNA 1: CAATCTGAATTCCGGTCTCCC
DNA 2: TGGTGGCTACGACGGGATT
B19: UUGCCAA (DNA:RNA)
RNA: B1 RNA with C27G, A28C, U29C, G30A
DNA 1: CAATCTGAATTCCGGTCTCCC
DNA 2: TGGTGGCTACGACGGGATT
B20: CUCCACC (DNA:RNA)
RNA: B1 RNA with U25C, A28C, U29A, G30C, A31C
DNA 1: CAATCTGAATTCCGGTCTCCC
DNA 2: TGGTGGCTACGACGGGATT
B21: AGUGACC (DNA:RNA)
RNA: B7 RNA with C25A, G27U, U28G, C29A, U30C, G31C
DNA 1: CAATCTGAATTCCGGTCTCCC
DNA 2: TGGTGGCTACGACGGGATT
B22: AGCGUCC (DNA:RNA)
RNA: B1 RNA with U25A, U26G, A28G, G30C, A31C
DNA 1: CAATCTGAATTCCGGTCTCCC
DNA 2: TGGTGGCTACGACGGGATT
B23: GGCAUGG (DNA:RNA)
RNA: B1 RNA with U25G, U26G, A31G
DNA 1: CAATCTGAATTCCGGTCTCCC
DNA 2: TGGTGGCTACGACGGGATT
B24: UGGGGCU (DNA:RNA)
RNA: B7 RNA with C25U, U28G, C29G, U30C, G31U
DNA 1: CAATCTGAATTCCGGTCTCCC
DNA 2: TGGTGGCTACGACGGGATT
B25: UACCGGA (DNA:RNA)
RNA: B1 RNA with U26A, A28C, U29G
DNA 1: CAATCTGAATTCCGGTCTCCC
DNA 2: TGGTGGCTACGACGGGATT
B26: AUAAAAA (DNA:RNA)
RNA: B1 RNA with U25A, C27A, U29A, G30A
DNA 1: CAATCTGAATTCCGGTCTCCC
DNA 2: TGGTGGCTACGACGGGATT
B27: UGCUGCC (DNA:RNA)
RNA: B7 RNA with C25U, G27C, C29G, U30C, G31C
DNA 1: CAATCTGAATTCCGGTCTCCC
DNA 2: TGGTGGCTACGACGGGATT
B28: GUCAGAG (DNA:RNA)
RNA: B1 RNA with U25G, U29G, G30A, A31G
DNA 1: CAATCTGAATTCCGGTCTCCC
DNA 2: TGGTGGCTACGACGGGATT
B29: UCAAAAA (DNA:RNA)
RNA: B1 RNA with U26C, C27A, U29A, G30A
DNA 1: CAATCTGAATTCCGGTCTCCC
DNA 2: TGGTGGCTACGACGGGATT
B30: CCGUCGC (DNA:RNA)
RNA: B7 RNA with G26C, U30G, G31C
DNA 1: CAATCTGAATTCCGGTCTCCC
DNA 2: TGGTGGCTACGACGGGATT
B31: UUGUCGU (DNA:RNA)
RNA: B7 RNA with C25U, G26U, U30G, G31U
DNA 1: CAATCTGAATTCCGGTCTCCC
DNA 2: TGGTGGCTACGACGGGATT

molecular target: T1, RBFOX1 RRM RbFoxmut (Fox-RRM*) (Homo sapiens, UniProt Q9NWB1 109-208, R118D;E147R;N151S;E152T); assay: EMSA; HiTS-Eq, 1 nM pool, 10 min; buffer printed only for the single-RNA assays: 10 mM Tris pH 7.5, 150 mM NaCl, 3.4 mM EDTA, 0.001% NP-40, 30 C; settings: tags: His6 N-terminal (pET28a); label: 5' 32P
T1 sequence: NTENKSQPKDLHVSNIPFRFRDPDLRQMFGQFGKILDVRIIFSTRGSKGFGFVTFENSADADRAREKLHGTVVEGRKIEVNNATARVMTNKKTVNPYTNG
In short: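 Purified wild-type or mutant RbFox RRM at increasing concentrations was equilibrated with 1 nM of 5′-radiolabelled RNA carrying 7 randomized nucleotides for 10 min in 50 µL. Unbound RNA was separated by 8% native PAGE and sequenced. Relative association constants came from read-count changes of each RNA species compared with the control reaction, normalised to the cognate motif.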

| Binder | binding signal |
| --- | --- |
| B1 | 0.0926 KA relative to UGCAUGU |
| B2 | 0.0392 KA relative to UGCAUGU |
| B3 | 0.0711 KA relative to UGCAUGU |
| B4 | 0.0959 KA relative to UGCAUGU |
| B5 | 0.059 KA relative to UGCAUGU |
| B6 | 0.118 KA relative to UGCAUGU |
| B7 | 0.236 KA relative to UGCAUGU |
| B8 | 0.116 KA relative to UGCAUGU |
| B9 | 0.116 KA relative to UGCAUGU |
| B10 | 0.209 KA relative to UGCAUGU |
| B11 | 0.686 KA relative to UGCAUGU |
| B12 | 0.0684 KA relative to UGCAUGU |
| B13 | 0.0766 KA relative to UGCAUGU |
| B14 | 0.0694 KA relative to UGCAUGU |
| B15 | 0.118 KA relative to UGCAUGU |
| B16 | 0.367 KA relative to UGCAUGU |

| Binder | binding signal |
| --- | --- |
| B17 | 0.138 KA relative to UGCAUGU |
| B18 | 0.107 KA relative to UGCAUGU |
| B19 | 0.0855 KA relative to UGCAUGU |
| B20 | 0.111 KA relative to UGCAUGU |
| B21 | 0.0698 KA relative to UGCAUGU |
| B22 | 0.0794 KA relative to UGCAUGU |
| B23 | 0.524 KA relative to UGCAUGU |
| B24 | 0.0717 KA relative to UGCAUGU |
| B25 | 0.0526 KA relative to UGCAUGU |
| B26 | 0.13 KA relative to UGCAUGU |
| B27 | 0.298 KA relative to UGCAUGU |
| B28 | 0.128 KA relative to UGCAUGU |
| B29 | 0.111 KA relative to UGCAUGU |
| B30 | 0.0913 KA relative to UGCAUGU |
| B31 | 0.132 KA relative to UGCAUGU |

— article PMC9911399, “Two distinct binding modes provide the RNA-binding protein RbFox with extraordinary sequence specificity”
